# Measured values as given in the supplement of paper PMC11417369.
# Some of the results follow.
# Tested on: PfSIP2 AP2 domain 1 (GST-tagged)
# Test: gcPBM binding intensity (ln(normalized median fluorescence intensity)); higher = stronger DNA binding
# Outline: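 An Agilent 4 × 180k array of primer-extended double-stranded 36-bp intergenic genomic probes, with negative controls, was incubated for 1 h with GST-tagged P. falciparum DNA-binding domains expressed in E. coli. Alexa488 anti-GST antibody detected bound protein, scanned at 488 nm. Binding intensity is the highest Masliner-normalised natural-log median intensity across replicate spots of either probe orientation.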
row,Sequence,gcPBM binding intensity (ln)
1,AAAACAAAAATATAAACACACATACATTGGTTTTCT [CACACA_site5405],6.87
2,ATAAATTGTAAAATGTGTACGCAGATATTGCGTATT [XGTACX_site332],7.17
3,ATAATATAAACATACACACACACATATATATATATA [CACACA_site5591],9.27
4,TTTTGTCTTCAAATCAAATGTATATAAAAAAAATAC [CACACA_negctrl_site1717],7.14
5,AAAATTAAAATAGTAATACACACTTCATAGGAAATG [CACACA_site1762],6.6
6,CTTTAATATTTTATTTCACACACATAAATGCCCCAA [CACACA_site8569],7.43
7,AACAAGAAATAATCACGTACACATTATAATAACTAA [XGTACX_site8184],7.06
8,TGATATTATTATAAGGTGCTTAAAAATAAAGATAAT [GTGCAC_site9539],7.78
9,AAAAAAAAAGATCACACACACATAAATATAAACAAA [CACACA_site5285],6.92
10,AAAAAAAAAAAAAAAAAAAAAAAAAAAAGTTAAAAA [TGCATGCA_negctrl_site74],8.74
11,ATATAAAATAATAAGGGTACAGGTCTCTGCGATGTT [XGTACX_site786],6.75
12,TAAAATATTGTTATTACATGCAACCTTATGAAAAAT [TGCATGCA_site706],7.16
13,AGAATTTTAGATTTAGCACACATTTTTTTTTTTTTT [CACACA_site4081],7.07
14,ACTCGCATATTTAAATGTACTTAATTAGAAGAAAAA [XGTACX_site3304],7.49
15,AAGAAAAATATTCGTGTGCACAGAAGTATATGTGTG [GTGCAC_site9814],8.85
16,TATTGTAAGAAAGGCACACAGATAAAATTATTATAT [CACACA_site2921],7.01
17,ATCATCTTTATTCAAGTGCACTGAAAATTTTTTATA [GTGCAC_site9801],10.1
18,ATAATTATATGGCTAGCACACAATAAATAATTATAT [CACACA_site3815],6.99
19,ATATAAGTGTATCTAACACACAAATATATAAAAATG [CACACA_site1956],6.95
20,ACAAGTTAAAATATTACACACATATAAATATTTATA [CACACA_site7467],7.02
21,AGTAATAGTTTGTGCACACTCAAGTATATCATAGAT [CACACA_site6082],9.62
22,TTTCGCTTTATTTATGCATGCAAATAAGTTGATATT [TGCATGCA_site724],7.16

row,Sequence,gcPBM binding intensity (ln)
1,ATTTTTGTAAATACATGTACATATATATGCATATCC [XGTACX_site6353],7.33
2,TACATATATACATACACACACATATAACCAATGTAG [CACACA_site2192],7.14
3,AAATTAATGAAATATACACACATATATAAATATATA [CACACA_site4378],6.89
4,AAATTTTTTAATTTTTCTCATTTAATTTAAAAATTA [GTGCAC_negctrl_site155],6.69
5,AAATTAAAGATAAAAGTGCAAAATTATAAATTTATT,7.97
6,AAAAGTATATATTCAGTGCATAGTCTTTAAATATAA [GTGCAC_site9522],8.15
7,ATAAGCATCTGGATATGTACTTATTCCTTTAAAGAT [XGTACX_site6225],7.04
8,TATATATAACATTGTACACACAAAGAAATAATATTA [CACACA_site3035],7.01
9,ATAAAAAAGCAACATCATATGTTTTTATAGAGTATT [CACACA_negctrl_site745],6.76
10,AACAAGTTGCATGGTGCACACATGTATTTATATCTA [CACACA_site5414],11.8
11,TATTAAAAATATTATGTACACACATTTTAGATATTT [CACACA_site8549],7.02
12,ATATAAATAAAAAAAAAAAAAAAAAAAAAAAAAAAA [CACACA_negctrl_site972],6.84
13,TATGCTACATTATATGTACACACATATACATATATA [CACACA_site8199],7.1
14,ATTTATACGTAATATGCATAAATATAAATATATATA [XGTACX_negctrl_site133],7.4
15,TTAAAATTTTAAAAATTTTAATTTTACAAAAAAAAT [TGCATGCA_negctrl_site227],6.69
16,TTTCTTTCTTTCTTTTTTTAAATATTTTTTAAAAAT [TGCATGCA_negctrl_site206],7.26
17,CTAAATATATAAAAAAGTACAAAATAAATAATAATT [XGTACX_site2442],7.01
18,TATATATTATGACCACCACACACCTATACACATAAC [CACACA_site8773],7.3
19,TATTTCTGATTATTTTGTACACATTATATATAATGC [XGTACX_site6990],7.13
20,AATATAAACAGACACACACACATATAGATTTATATT [CACACA_site7382],7.1
21,GGATAGATAATAGGGGGTACAAATATACATACATAT [XGTACX_site5089],8.24
22,TTTTAATGAAAACACACACACACATATATATATATA [CACACA_site5295],9.74
